# The list shows a part of the results.
# Biological target: T1, OsWOX13 (Oryza sativa, UniProt Q5QMM3 1-267)
# T1 sequence: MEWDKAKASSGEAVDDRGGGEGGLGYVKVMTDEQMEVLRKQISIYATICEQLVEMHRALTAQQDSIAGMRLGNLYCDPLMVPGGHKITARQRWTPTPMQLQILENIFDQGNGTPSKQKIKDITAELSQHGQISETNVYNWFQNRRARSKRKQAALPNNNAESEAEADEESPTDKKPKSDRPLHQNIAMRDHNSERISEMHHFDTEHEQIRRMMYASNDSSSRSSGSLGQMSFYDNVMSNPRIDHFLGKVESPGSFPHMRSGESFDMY
# Assay: protein-binding microarray (RPBM); PBS, 2% BSA, 51.3 ng/ul salmon testes DNA, 50 uM zinc acetate, 200 nM TF, 25 C, 1 h; high values mean tight binding
# Conditions: protein: recombinant; tags: N-terminal polyhistidine and DsRed monomer fusion (pET32a); label: CyDye5-dUTP incorporated in the synthesized complementary strand; 3' TTTTT single-stranded linker to array surface; dsDNA, one strand shown
# How it was run: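 An Axon 4000B scanner gave the binding signal as per-feature fluorescence intensity in arbitrary units. This followed washing of a custom Agilent array that had been incubated for 1 h at 25 °C with 200 nM protein in PBS, 2% BSA, salmon testes DNA and 50 µM zinc acetate. The proteins were transcription factors fused at the N-terminus to polyhistidine and DsRed, expressed in E. coli BL21-CodonPlus and purified on Ni–NTA.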
row,Sequence,binding signal
1,TTAAATCTCAATCGTCATAATTTGGACCCATCACAATCTACGGAGTCACCTAGTGCAG,3250 fluorescence intensity (a.u.)
2,AGATAATGATTTGACATTAATTGTCTATTGAGTTCTAAAACGGAGTCACCTAGTGCAG,30400 fluorescence intensity (a.u.)
3,TTATTGATTACTAAACTTTTATCAAGAAACAAGCATATGGCGGAGTCACCTAGTGCAG,30200 fluorescence intensity (a.u.)
4,TACTATATAATTGCATTGTAGTTACACTATAACTATTACTCGGAGTCACCTAGTGCAG,5180 fluorescence intensity (a.u.)
5,ATCTATAATTAGAGAATGTTTACTATAGCATCACATAGGCCGGAGTCACCTAGTGCAG,27800 fluorescence intensity (a.u.)
6,TTAATTTTAAGATTGATTTTGAGATATTTTCAATGTAGTTCGGAGTCACCTAGTGCAG,42200 fluorescence intensity (a.u.)
7,ACCATCAATCAATCGATCGATCGATCGCGTCGCCATCGGCCGGAGTCACCTAGTGCAG,28200 fluorescence intensity (a.u.)
8,AATATAACAAGTTTTAATTATATATCTGAATAAGTGTAGTCGGAGTCACCTAGTGCAG,7920 fluorescence intensity (a.u.)
9,GCAGCCTTGAACCCTTGATTAGCCTTGTCATGTAAACCTACGGAGTCACCTAGTGCAG,4230 fluorescence intensity (a.u.)
10,CCGTGTAATTTCCCTTTTAAAATTTCACCAAATTTGGTTGCGGAGTCACCTAGTGCAG,15100 fluorescence intensity (a.u.)
11,GCAAACTGAAAATAACCGTAACAAAGTAACACCATCATCTCGGAGTCACCTAGTGCAG,3550 fluorescence intensity (a.u.)
12,TTTGACAAAATTCAATCAAATGCTAAATTTATACCACAAACGGAGTCACCTAGTGCAG,31500 fluorescence intensity (a.u.)
13,ACAAATGGCAAGTGTAATTGAGTAAGTTGTCAACTTGTGTCGGAGTCACCTAGTGCAG,9750 fluorescence intensity (a.u.)
14,GATGCCAATTATCGGCTTACAAATTTATTTGATACTTTAGCGGAGTCACCTAGTGCAG,12600 fluorescence intensity (a.u.)
15,TCGATTGAGACATCACCCCAAATCTTCCCCTAACTTTGCTCGGAGTCACCTAGTGCAG,4550 fluorescence intensity (a.u.)
16,CTTAAATTTTGAAACAAATGGAGATCTTATATTGTATACACGGAGTCACCTAGTGCAG,10800 fluorescence intensity (a.u.)
17,ATGGTTCTAATTTTAGAAGATTGGTGTGGCATTTACCTGACGGAGTCACCTAGTGCAG,10500 fluorescence intensity (a.u.)
18,TACATAATTACGTGCTACTAAGAATATATGTGATTTTGGTCGGAGTCACCTAGTGCAG,27400 fluorescence intensity (a.u.)
19,ATAATCCCTAAATTAATAAATGGATATGCAGCCTAATAAGCGGAGTCACCTAGTGCAG,7480 fluorescence intensity (a.u.)
20,AAAATAAAATGGGATATAATTTAGTACAACGGATATGAACCGGAGTCACCTAGTGCAG,5600 fluorescence intensity (a.u.)
21,GTTTGTATTATGTCTCTTAATTGACAGATGGCCTGTACCTCGGAGTCACCTAGTGCAG,30900 fluorescence intensity (a.u.)

row,Sequence,binding signal
1,GGAGTGATTAGGGGAAAGAGTGAGGAAGGAAAGGAAAAGTCGGAGTCACCTAGTGCAG,6070 fluorescence intensity (a.u.)
2,GAAGATAATTTGTTACCAAGTCGGAGTTGGATTTGTACCACGGAGTCACCTAGTGCAG,17400 fluorescence intensity (a.u.)
3,GAATTTTCATCAATGGTCCAGATTGATCAATCGCTATAGCCGGAGTCACCTAGTGCAG,8690 fluorescence intensity (a.u.)
4,GAAGCAAGGATTAATTTGGAATTGGATGAGGACGAGTTGACGGAGTCACCTAGTGCAG,3850 fluorescence intensity (a.u.)
5,GTTGGATTGAAACGGCCTGGGATTTCATTTTGGACCGGATCGGAGTCACCTAGTGCAG,24700 fluorescence intensity (a.u.)
6,CTAGGACAAATTGAGAGGAATCGCCTCCTAGAAATAGTCACGGAGTCACCTAGTGCAG,3150 fluorescence intensity (a.u.)
7,ATCATAATTGTGCAAGTATTTTGTTTGTCTTGTTCTATTTCGGAGTCACCTAGTGCAG,10400 fluorescence intensity (a.u.)
8,GTGCACTCAAGCCAGACTAATTGGACCCCACACATGCATACGGAGTCACCTAGTGCAG,4390 fluorescence intensity (a.u.)
9,ATTGCACAGATTGTGACTAATTTGCGAGACGAATCTTTTACGGAGTCACCTAGTGCAG,7340 fluorescence intensity (a.u.)
10,GATATATGATTGACTCAAGTCTTATTGATAAACTTGGTCCCGGAGTCACCTAGTGCAG,57500 fluorescence intensity (a.u.)
11,AGTCTTCTTTGTTGCAATCCGGATTGATAGTCTTGAGGAGCGGAGTCACCTAGTGCAG,3820 fluorescence intensity (a.u.)
12,GCGTCCCCAGTCAATTAAGGACCGAGCCATGAAGTTAAGCCGGAGTCACCTAGTGCAG,9700 fluorescence intensity (a.u.)
13,TTATCAATCGATAATAATAAAGGCAGGATGAATTGACAGGCGGAGTCACCTAGTGCAG,3290 fluorescence intensity (a.u.)
14,TCATTTTCCAATTAAATAATTGTTAAATGATGTTTGTATTCGGAGTCACCTAGTGCAG,18100 fluorescence intensity (a.u.)
15,CATGATTAGCCATAAGCGTTACAGTAACCCACATGTGCTACGGAGTCACCTAGTGCAG,31800 fluorescence intensity (a.u.)
16,ATTTGATTGACAGTAGATCGACAAACATAGTTTCAATATGCGGAGTCACCTAGTGCAG,49000 fluorescence intensity (a.u.)
17,CTTAATTTTGAATAGTACCTGCTACCTATATGAATTGAAACGGAGTCACCTAGTGCAG,14600 fluorescence intensity (a.u.)
18,CCTAATGTATGAAAGACACAGAAATGCTTCAACCTGTGCGCGGAGTCACCTAGTGCAG,3780 fluorescence intensity (a.u.)
19,AATGATGGAGGATAATTTATATGCTAAATTATAAACTTGTCGGAGTCACCTAGTGCAG,57700 fluorescence intensity (a.u.)
20,GGCAGTGATAGGCATTAAATTTACTTTTATTGAATTATTACGGAGTCACCTAGTGCAG,9140 fluorescence intensity (a.u.)
21,TTAGATTTGGCGACAAATTAAGGGATCTGAAGTGAACTTACGGAGTCACCTAGTGCAG,6290 fluorescence intensity (a.u.)

# From PMC7819943, “Rice protein-binding microarrays: a tool to detect cis-acting elements near promoter regions in rice”
